# Data published in US12116397B2, “IL-IR-I binding polypeptide” (Swedish Orphan Biovitrum AB (publ), priority 2017, dated 2024).
# Where two headings read alike, the source gives them in different places.
# Columns and labels:
# hIL-1R-I = target: T1, hIL-1R-I (Homo sapiens, UniProt P14778); assay: Biacore affinity/kinetic analysis of His6-tagged Z variants, human IL-1R-I; format: binding
# T1 construct: purchased R&D Systems 269-1R/CF
# T1 sequence (P14778 18-569): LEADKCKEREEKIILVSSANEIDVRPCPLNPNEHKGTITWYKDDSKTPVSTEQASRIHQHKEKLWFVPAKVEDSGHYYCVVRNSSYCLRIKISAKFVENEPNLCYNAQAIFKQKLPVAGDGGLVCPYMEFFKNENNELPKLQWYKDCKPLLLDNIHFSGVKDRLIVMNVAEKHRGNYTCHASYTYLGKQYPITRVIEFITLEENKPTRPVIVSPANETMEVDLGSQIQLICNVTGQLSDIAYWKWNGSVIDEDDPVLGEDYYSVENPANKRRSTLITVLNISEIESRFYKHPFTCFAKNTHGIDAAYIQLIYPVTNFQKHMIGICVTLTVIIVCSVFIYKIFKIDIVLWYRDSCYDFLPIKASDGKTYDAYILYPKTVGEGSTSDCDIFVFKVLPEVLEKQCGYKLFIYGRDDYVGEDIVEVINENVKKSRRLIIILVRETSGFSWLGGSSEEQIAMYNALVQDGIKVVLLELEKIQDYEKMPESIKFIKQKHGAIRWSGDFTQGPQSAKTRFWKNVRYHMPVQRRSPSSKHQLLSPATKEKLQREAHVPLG
# [1] = Circular dichroism (CD) spectroscopy analysis, melting temperature and refolding; format: physicochemical; details: for Melting temperatures (Tm): His6-tagged Z variants, CD variable temperature measurement; for Tm (° C.): His6-tagged Z variants 0.5 mg/ml in PBS, 221 nm, 20 to 90° C. (Example 2)
# TF-1 cells = assay: In vitro IL-1β neutralization assay (TF-1 cell assay); format: cell-based; details: His6-Z polypeptides
# Method: The TF-1 cell line proliferates in response to many different cytokines including IL-1β. This cell line was used to assess the ability of primary IL-1R1 binders to inhibit IL-1β actions. TF-1 cells were maintained in RPM11640 with L-glutamine (Lonza) supplemented with 10% FCS (Gibco), Penicillin-Streptomycin (Lonza) and 2 ng/ml rhGM-CSF (R&D Systems). Prior to use, cells were washed twice in RPM11640 without rhGM-CSF. Cells were then counted and dispensed into 96 well flat bottomed plates at a density of 3×10^4 cells per well. In separate plates, serial dilutions of the inhibitory binders; His6-tagged IL-1R-I binding Z variants, with a concentration range of 400-0.1 nM, or the IL-1R-I binding protein Kineret (anakinra, Sobi), with a concentration range of 0.3-0.0003 nM, were incubated in the presence of 0.6 nM IL-1β (PeproTech). The pre-mixed complexes of the Z variant polypeptides and IL-13 were transferred to wells containing TF-1 cells. The cells were stimulated for 72 h at 37° C. in a humidified 5% CO2 atmosphere. During the last four hours of incubation, 19 μl of 2× diluted CCK-8 (Fluka, Sigma Aldrich), was added per well to determine the proliferative responses. The absorbance was measured at 450 nm using a microplate reader (Victor3, Perkin Elmer). The data on cell growth was assessed by non-linear regression to a four-parameter dose-response curve, and the half maximal inhibitory concentration (IC50) was determined using GraphPadPrism program.
# His6-tagged IL-1R-I specific Z variants were tested for their inhibitory capacity in the TF-1 cell assay. The assay was run as described in Example 2. The data on cell growth was assessed by non-linear regression to a four-parameter dose-response curve, and IC50 values were determined using GraphPadPrism program. His6-tagged Z12967 was included for comparison.
# His6-tagged IL-1R-I specific Z variants were tested for their inhibitory capacity in the TF-1 cell assay. The assay was run as described in Example 2. The data on cell growth was assessed by non-linear regression to a four-parameter dose-response curve, and IC50 values were determined using GraphPadPrism program. His6-tagged Z12967, Z16065, Z16163 and Z18557 were included for comparison.
# [2] = His6-Z polypeptides, 100, 10 and 1 nM (Example 5)
# [3] = His6-Z polypeptides, 100, 10 and 1 nM (Example 5), read-out: KD
# [4] = IL-1β inhibition in TF-1 cell assay, Table 12 (first matured library)
# [5] = His6-Z polypeptides, Biacore 2000, 25° C., 40 nM and 10 nM (Example 2), read-out: Human IL-1R-I KD
# [6] = His6-Z polypeptides binding to human IL-1R-I, Biacore, Table 19
# [7] = His6-Z polypeptides binding to human IL-1R-I, Biacore, Table 19, read-out: KD
# [8] = IL-1β inhibition in TF-1 cell assay, Table 20 (Example 9)
substance,measurement,setting,value
Z16116: IL-1R-I binding Z variant (VDAKYAKEVEAAQMEIFGLPNLTRKQYTAFIRKLLDDPSQSSELLSEAKKLNDSQAPK; Engineered IL-1R-I binding polypeptide),koff,hIL-1R-I; [2],0.0023 s⁻¹
same,kon,hIL-1R-I; [2],2.6e+06 M⁻¹ s⁻¹
same,Kd,hIL-1R-I; [3],0.88 nM
same,Melting temperatures (Tm),[1]; Table 13,59 °C
same,IC50,TF-1 cells; [4],4.1 nM
Z16043: IL-1R-I binding Z variant (VDAKYAKETEEAQMEIFRLPNLTRRQYTAFIRKLLDDPSQSSELLSEAKKLNDSQAPK; Engineered IL-1R-I binding polypeptide),koff,hIL-1R-I; [2],0.0011 s⁻¹
same,kon,hIL-1R-I; [2],2.5e+06 M⁻¹ s⁻¹
same,Kd,hIL-1R-I; [3],0.44 nM
same,Melting temperatures (Tm),[1]; Table 13,54 °C
same,IC50,TF-1 cells; [4],2.5 nM
Z12974: IL-1R-I binding Z variant (VDAKYAKEADHAQQEIFALPNLTRRQYTAFIIKLLDDPSQSSELLSEAKKLNDSQAPK; Engineered IL-1R-I binding polypeptide),Kd,hIL-1R-I; [5],15 nM
same,Tm (° C.),[1],49 °C
same,IC50,"TF-1 cells; 0.6 nM IL-1β, 72 h (Example 2)",60 nM
Z16341: IL-1R-I binding Z variant (VDAKYAKELEAAQMEIFALPNLTRRQYTAFIRKLLDDPSQSSELLSEAKKLNDSQAPK; Engineered IL-1R-I binding polypeptide),koff,hIL-1R-I; [2],0.0016 s⁻¹
same,kon,hIL-1R-I; [2],3e+06 M⁻¹ s⁻¹
same,Kd,hIL-1R-I; [3],0.52 nM
same,Melting temperatures (Tm),[1]; Table 13,59 °C
same,IC50,TF-1 cells; [4],3.9 nM
Z16093: IL-1R-I binding Z variant (VDAKYAKETEEAQMEIFALPNLTRKQYTAFIRKLFDDPSQSSELLSEAKKLNDSQAPK; Engineered IL-1R-I binding polypeptide),koff,hIL-1R-I; [2],0.0014 s⁻¹
same,kon,hIL-1R-I; [2],5.6e+06 M⁻¹ s⁻¹
same,Kd,hIL-1R-I; [3],0.25 nM
same,Melting temperatures (Tm),[1]; Table 13,52 °C
same,IC50,TF-1 cells; [4],3.3 nM
Z12975: IL-1R-I binding Z variant (VDAKYAKEAHNAQQEIYRLPNLTRRQYTAFIIKLLDDPSQSSELLSEAKKLNDSQAPK; Engineered IL-1R-I binding polypeptide),Kd,hIL-1R-I; [5],89 nM
same,Tm (° C.),[1],51 °C
same,IC50,"TF-1 cells; 0.6 nM IL-1β, 72 h (Example 2)",35 nM
Z17280: IL-1R-I binding Z variant (VDAKYAKEVEQAYWEIYALPNLTRKQYTAFIRKLLDDPSQSSELLSEAKKLNDSQAPK; Engineered IL-1R-I binding polypeptide),koff,hIL-1R-I; [2],0.0053 s⁻¹
same,kon,hIL-1R-I; [2],2.4e+06 M⁻¹ s⁻¹
same,Kd,hIL-1R-I; [3],2.2 nM
same,Melting temperatures (Tm),[1]; Table 13,62 °C
same,IC50,TF-1 cells; [4],5.4 nM
Z18846: IL-1R-I binding Z variant (VDAKYAKEIEEIQMEIFHLPNLTRRQYTAFIRKLLDDPSQSSELLSEAKKLNDSQAPK; Engineered IL-1R-I binding polypeptide),koff,hIL-1R-I; [6],0.0051 s⁻¹
same,kon,hIL-1R-I; [6],4.7e+07 M⁻¹ s⁻¹
same,Kd,hIL-1R-I; [7],0.11 nM
same,Melting temperatures (Tm),[1]; Table 21,60 °C
same,IC50,TF-1 cells; [8],0.2 nM
Z16681: IL-1R-I binding Z variant (VDAKYAKEVEYAYYEIFKLPNLTRKQYTAFIRKLLDDPSQSSELLSEAKKLNDSQAPK; Engineered IL-1R-I binding polypeptide),koff,hIL-1R-I; [2],0.005 s⁻¹
same,kon,hIL-1R-I; [2],3.6e+06 M⁻¹ s⁻¹
same,Kd,hIL-1R-I; [3],1.4 nM
same,Melting temperatures (Tm),[1]; Table 13,68 °C
same,IC50,TF-1 cells; [4],20.1 nM
Z16023: IL-1R-I binding Z variant (VDAKYAKEVEEAQMEIFALPNLTRKQYTAFIRKLLDDPSQSSELLSEAKKLNDSQAPK; Engineered IL-1R-I binding polypeptide),koff,hIL-1R-I; [2],0.0015 s⁻¹
same,kon,hIL-1R-I; [2],5.3e+06 M⁻¹ s⁻¹
same,Kd,hIL-1R-I; [3],0.29 nM
same,Melting temperatures (Tm),[1]; Table 13,60 °C
same,IC50,TF-1 cells; [4],3.8 nM
Z12911: IL-1R-I binding Z variant (VDAKYAKEHEKAILEIFHLPNLTRRQYTAFIRKLLDDPSQSSELLSEAKKLNDSQAPK; Engineered IL-1R-I binding polypeptide),Kd,hIL-1R-I; [5],7.1 nM
same,Tm (° C.),[1],64 °C
same,IC50,"TF-1 cells; 0.6 nM IL-1β, 72 h (Example 2)",30 nM
Z15927: IL-1R-I binding Z variant (VDAKYAKEIEEAQMEIFYLPNLTRKQYTAFIRKLLDDPSQSSELLSEAKKLNDSQAPK; Engineered IL-1R-I binding polypeptide),koff,hIL-1R-I; [2],0.0012 s⁻¹
same,kon,hIL-1R-I; [2],2.4e+06 M⁻¹ s⁻¹
same,Kd,hIL-1R-I; [3],0.51 nM
same,Melting temperatures (Tm),[1]; Table 13,56 °C
same,IC50,TF-1 cells; [4],2.5 nM
Z12917: IL-1R-I binding Z variant (VDAKYAKEARQAYAEIYLLPNLTRRQYTAFIRKLLDDPSQSSELLSEAKKLNDSQAPK; Engineered IL-1R-I binding polypeptide),Kd,hIL-1R-I; [5],8 nM
same,Tm (° C.),[1],56 °C
same,IC50,"TF-1 cells; 0.6 nM IL-1β, 72 h (Example 2)",11 nM
Z15953: IL-1R-I binding Z variant (VDAKYAKETEKAQMEIFALPNLTRKQYTAFIRKLLDDPSQSSELLSEAKKLNDSQAPK; Engineered IL-1R-I binding polypeptide),koff,hIL-1R-I; [2],0.0015 s⁻¹
same,kon,hIL-1R-I; [2],6e+06 M⁻¹ s⁻¹
same,Kd,hIL-1R-I; [3],0.24 nM
same,Melting temperatures (Tm),[1]; Table 13,56 °C
same,IC50,TF-1 cells; [4],3.7 nM
Z16169: IL-1R-I binding Z variant (VDAKYAKETEEAQMEIFYLPNLTRRQYTAFIRKLLDDPSQSSELLSEAKKLNDSQAPK; Engineered IL-1R-I binding polypeptide),koff,hIL-1R-I; [2],0.001 s⁻¹
same,kon,hIL-1R-I; [2],2.6e+06 M⁻¹ s⁻¹
same,Kd,hIL-1R-I; [3],0.39 nM
same,Melting temperatures (Tm),[1]; Table 13,48 °C
same,IC50,TF-1 cells; [4],0.76 nM
Z16097: IL-1R-I binding Z variant (VDAKYAKETERAQMEIFSLPNLTRKQYTAFIRKLLDDPSQSSELLSEAKKLNDSQAPK; Engineered IL-1R-I binding polypeptide),koff,hIL-1R-I; [2],0.0015 s⁻¹
same,kon,hIL-1R-I; [2],3.1e+06 M⁻¹ s⁻¹
same,Kd,hIL-1R-I; [3],0.48 nM
same,Melting temperatures (Tm),[1]; Table 13,56 °C
same,IC50,TF-1 cells; [4],3.4 nM
Z18831: IL-1R-I binding Z variant (VDAKYAKEIEEVQMEIFYLPNLTRRQYTAFIRKLLDDPSQSSELLSEAKKLNDSQAPK; Engineered IL-1R-I binding polypeptide),koff,hIL-1R-I; [6],0.0053 s⁻¹
same,kon,hIL-1R-I; [6],4e+07 M⁻¹ s⁻¹
same,Kd,hIL-1R-I; [7],0.13 nM
same,Melting temperatures (Tm),[1]; Table 21,58 °C
same,IC50,TF-1 cells; [8],0.4 nM
